# Laboratory results: the supplement of paper PMC8728848
# This is one part of the list.
# Key:
# Experiment in all cases: glycan array binding signal (z-score within array); higher = stronger binding
# Conditions in all cases: glycan notation: IUPAC condensed, linker removed
# [1] = biological target: Fuc(a1-2)[GalNAc(a1-4)]Gal(b1-4)GlcNAc
# How it was run: (§1)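 Negative Z-scores can be read as non-binding. The Z-score is calculated within each array and then averaged across arrays of one protein sequence at different concentrations or buffers and across linkers. Arrays, 3228 in all, were curated from the Consortium for Functional Glycomics database and kept only where the protein sequence was available.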
# [2] = biological target: Fuc(a1-2)[GalNAc(b1-3)]Gal
# How it was run: as §1
# [3] = biological target: Fuc(a1-3)GlcNAc
# How it was run: as §1
# [4] = biological target: Fuc(a1-3)[Gal(b1-4)]Glc6S
# How it was run: as §1
# [5] = biological target: Fuc(a1-3)[Gal(b1-4)]GlcNAc
# How it was run: as §1
# [6] = biological target: Fuc(a1-3)[Gal(b1-4)]GlcNAc(b1-2)Man
# How it was run: as §1
# [7] = biological target: Fuc(a1-3)[Gal(b1-4)]GlcNAc(b1-2)Man(a1-3)[Fuc(a1-3)[Gal(b1-4)]GlcNAc(b1-2)Man(a1-6)]Man(b1-4)GlcNAc(b1-4)GlcNAc
# How it was run: as §1
# [8] = biological target: Fuc(a1-3)[Gal(b1-4)]GlcNAc(b1-2)Man(a1-3)[Fuc(a1-3)[Gal(b1-4)]GlcNAc(b1-2)Man(a1-6)]Man(b1-4)GlcNAc(b1-4)[Fuc(a1-6)]GlcNAc
# How it was run: as §1
# [9] = biological target: Fuc(a1-3)[Gal(b1-4)]GlcNAc(b1-3)Gal(b1-3)[Fuc(a1-4)]GlcNAc
# How it was run: as §1
# [10] = biological target: Fuc(a1-3)[Gal(b1-4)]GlcNAc(b1-3)Gal(b1-4)[Fuc(a1-3)]GlcNAc
# How it was run: as §1
# [11] = biological target: Fuc(a1-3)[Gal(b1-4)]GlcNAc(b1-3)Gal(b1-4)[Fuc(a1-3)]GlcNAc(b1-3)Gal(b1-4)[Fuc(a1-3)]GlcNAc
# How it was run: as §1
# [12] = biological target: Fuc(a1-3)[Gal(b1-4)]GlcNAc(b1-3)GalNAc
# How it was run: as §1
# [13] = biological target: Fuc(a1-3)[Gal(b1-4)]GlcNAc(b1-4)Gal(b1-4)[Fuc(a1-3)]GlcNAc
# How it was run: as §1
# [14] = biological target: Fuc(a1-3)[Gal(b1-4)]GlcNAc(b1-4)Gal(b1-4)[Fuc(a1-3)]GlcNAc(b1-4)Gal(b1-4)[Fuc(a1-3)]GlcNAc
# How it was run: as §1
# [15] = biological target: Fuc(a1-3)[Gal(b1-4)]GlcNAc(b1-6)GalNAc
# How it was run: as §1
# [16] = biological target: Fuc(a1-3)[Gal(b1-4)]GlcNAc(b1-6)[Gal(b1-3)GlcNAc(b1-3)]Gal(b1-4)Glc
# How it was run: as §1
# [17] = biological target: Fuc(a1-3)[Gal(b1-4)]GlcNAc6S
# How it was run: as §1
# [18] = biological target: Fuc(a1-3)[Gal3S(b1-4)]Glc
# How it was run: as §1
# [19] = biological target: Fuc(a1-3)[Gal3S(b1-4)]GlcNAc
# How it was run: as §1
# [20] = biological target: Fuc(a1-3)[Gal3S(b1-4)]GlcNAc6S
# How it was run: as §1
# [21] = biological target: Fuc(a1-3)[GalNAc(b1-4)]GlcNAc
# How it was run: as §1
# [22] = biological target: Fuc(a1-3)[GalNAc(b1-4)]GlcNAc6S
# How it was run: as §1
# [23] = biological target: Fuc(a1-4)GlcNAc
# How it was run: as §1
# [24] = biological target: Fuc(b1-3)GlcNAc
# How it was run: as §1
# [25] = biological target: Gal(a1-2)Gal
# How it was run: as §1
# [26] = biological target: Gal(a1-3)Gal
# How it was run: as §1
# [27] = biological target: Gal(a1-3)Gal(b1-3)GlcNAc
# How it was run: as §1
# [28] = biological target: Gal(a1-3)Gal(b1-3)GlcNAc(b1-2)Man
# How it was run: as §1
# [29] = biological target: Gal(a1-3)Gal(b1-3)GlcNAc(b1-2)Man(a1-3)[Gal(a1-3)Gal(b1-3)GlcNAc(b1-2)Man(a1-6)]Man(b1-4)GlcNAc(b1-4)GlcNAc
# How it was run: as §1
# [30] = biological target: Gal(a1-3)Gal(b1-3)GlcNAc(b1-3)GalNAc
# How it was run: as §1
# [31] = biological target: Gal(a1-3)Gal(b1-3)GlcNAc(b1-6)GalNAc
# How it was run: as §1
# [32] = biological target: Gal(a1-3)Gal(b1-3)[Fuc(a1-4)]GlcNAc(b1-2)Man(a1-3)[Gal(a1-3)Gal(b1-3)[Fuc(a1-4)]GlcNAc(b1-2)Man(a1-6)]Man(b1-4)GlcNAc(b1-4)GlcNAc
# How it was run: as §1
# [33] = biological target: Gal(a1-3)Gal(b1-4)Glc
# How it was run: as §1
# [34] = biological target: Gal(a1-3)Gal(b1-4)GlcNAc
# How it was run: as §1
# [35] = biological target: Gal(a1-3)Gal(b1-4)GlcNAc(b1-2)Man
# How it was run: as §1
# [36] = biological target: Gal(a1-3)Gal(b1-4)GlcNAc(b1-2)Man(a1-3)[Gal(a1-3)Gal(b1-4)GlcNAc(b1-2)Man(a1-6)]Man(b1-4)GlcNAc(b1-4)GlcNAc
# How it was run: as §1
# [37] = biological target: Gal(a1-3)Gal(b1-4)GlcNAc(b1-3)GalNAc
# How it was run: as §1
# [38] = biological target: Gal(a1-3)Gal(b1-4)GlcNAc(b1-6)GalNAc
# How it was run: as §1
# [39] = biological target: Gal(a1-3)Gal(b1-4)[Fuc(a1-3)]GlcNAc
# How it was run: as §1
# [40] = biological target: Gal(a1-3)Gal(b1-4)[Fuc(a1-3)]GlcNAc(b1-2)Man(a1-3)[Gal(a1-3)Gal(b1-4)[Fuc(a1-3)]GlcNAc(b1-2)Man(a1-6)]Man(b1-4)GlcNAc(b1-4)GlcNAc
# How it was run: as §1
# [41] = biological target: Gal(a1-3)GalNAc
# How it was run: as §1
# [42] = biological target: Gal(a1-3)[Gal(a1-4)]Gal(b1-4)GlcNAc
# How it was run: as §1
# [43] = biological target: Gal(a1-4)Gal(b1-3)GlcNAc(b1-2)Man(a1-3)[Gal(a1-4)Gal(b1-3)GlcNAc(b1-2)Man(a1-6)]Man(b1-4)GlcNAc(b1-4)GlcNAc
# How it was run: as §1
# [44] = biological target: Gal(a1-4)Gal(b1-4)Glc
# How it was run: as §1
# [45] = biological target: Gal(a1-4)Gal(b1-4)GlcNAc
# How it was run: as §1
binder,measurement,setting,value
WGA (Triticum vulgare) (protein) QRCGEQGSNMECPNNLCCSQYGYCGMGGDYCGKGCQNGACWTSKRCGSQAGGATCPNNHCCSQYGHCGFGAEYCGAGCQGGPCRADIKCGSQSGGKLCPNNLCCSQWGFCGLGSEFCGGGCQSGACSTDKPCGKDAGGRVCTNNYCCSKWGSCGIGPGYCGAGCQSGGCDAVFAGAITANSTLLAE,glycan array binding signal (z-score),[1],3
same,glycan array binding signal (z-score),[2],-0.35
same,glycan array binding signal (z-score),[3],-0.36
same,glycan array binding signal (z-score),[4],-0.284
same,glycan array binding signal (z-score),[5],-0.351
same,glycan array binding signal (z-score),[6],-0.33
same,glycan array binding signal (z-score),[7],-0.289
same,glycan array binding signal (z-score),[8],-0.307
same,glycan array binding signal (z-score),[9],-0.332
same,glycan array binding signal (z-score),[10],-0.381
same,glycan array binding signal (z-score),[11],-0.408
same,glycan array binding signal (z-score),[12],-0.327
same,glycan array binding signal (z-score),[13],-0.237
same,glycan array binding signal (z-score),[14],-0.264
same,glycan array binding signal (z-score),[15],-0.307
same,glycan array binding signal (z-score),[16],-0.342
same,glycan array binding signal (z-score),[17],-0.307
same,glycan array binding signal (z-score),[18],-0.336
same,glycan array binding signal (z-score),[19],-0.497
same,glycan array binding signal (z-score),[20],-0.361
same,glycan array binding signal (z-score),[21],1.39
same,glycan array binding signal (z-score),[22],-0.223
same,glycan array binding signal (z-score),[23],-0.38
same,glycan array binding signal (z-score),[24],-0.359
same,glycan array binding signal (z-score),[25],-0.365
same,glycan array binding signal (z-score),[26],-0.354
same,glycan array binding signal (z-score),[27],-0.352
same,glycan array binding signal (z-score),[28],-0.363
same,glycan array binding signal (z-score),[29],-0.217
same,glycan array binding signal (z-score),[30],-0.349
same,glycan array binding signal (z-score),[31],-0.388
same,glycan array binding signal (z-score),[32],-0.202
same,glycan array binding signal (z-score),[33],-0.342
same,glycan array binding signal (z-score),[34],-0.01
same,glycan array binding signal (z-score),[35],-0.338
same,glycan array binding signal (z-score),[36],-0.118
same,glycan array binding signal (z-score),[37],-0.357
same,glycan array binding signal (z-score),[38],-0.293
same,glycan array binding signal (z-score),[39],-0.36
same,glycan array binding signal (z-score),[40],-0.3
same,glycan array binding signal (z-score),[41],-0.333
same,glycan array binding signal (z-score),[42],1.26
same,glycan array binding signal (z-score),[43],-0.238
same,glycan array binding signal (z-score),[44],-0.335
same,glycan array binding signal (z-score),[45],0.221
